Assay results taken from PubChem BioAssay AID652104 (National Center for Advancing Translational Sciences (NCATS), 2013).
Screen size: about 410,000 compounds; about 7,200 (1.8%) were called active. The shares of active, inactive and inconclusive entries below differ from those in the screen. Calls come from the whole dose curve; as a rule, active = well fitted activation curve with a large enough effect; inconclusive = small, poorly fitted or top-dose-only effect, or another doubt; inactive = no such curve, though single readings can be large or run the other way. No potency is given beside an inconclusive call; the fits are too rough.

test: qHTS of TDP-43 Inhibitors; conditions: TDP-43 expressing yeast growth rescue, BacTiter-Glo, 24 h; growth rescue (activation): at 46.1 µM (top of the series) unless noted; note: nearly all actives have a fitted effect of over 50% in size; for growth rescue (activation): % of control where 0% means no effect
Outline: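 In this qHTS, compounds that restore growth of yeast expressing TDP-43 appear as activators. Cells (OD600=0.02, galactose medium, raffinose-pregrown) are incubated with compound 24 hr at 30 deg C and growth is quantified by BacTiter-Glo.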
Potency is the fitted concentration of half-maximal effect; tags give direction and shape of the fitted curve.

| SMILES | Potency | growth rescue (activation) |
| --- | --- | --- |
| O=C(NNC(=O)c1ccccc1F)c1ccc(-c2ccc(Cl)cc2)o1 | inconclusive [activator, partial curve] | – |
| Cc1ccc2oc(=O)ccc2c1 | inconclusive [activator, partial curve, poor fit] | – |
| Cc1onc(-c2ccc3c(c2)OCO3)c1-c1ccc2[nH]ccc2c1 | active: 22.4 µM | – |
| Cc1cc(NC(=O)c2ccccc2)n(-c2nc3ccccc3[nH]2)n1 | inconclusive [activator, partial curve] | – |
| CS(=O)(=O)N1CCN(c2ccc(NC(=O)COc3ccccc3[N+](=O)[O-])cc2)CC1 | inconclusive [activator, single point] | – |
| CCCCn1c(=NC(=O)c2ccc3c(c2)OCO3)c(C#N)cc2c(=O)n3cccc(C)c3nc21 | inactive | – |
| CCCCNC(=O)C1CCC(Cn2c(=O)c3sccc3n(Cc3ccccc3)c2=O)CC1 (centres undefined) | inactive | – |
| CS(=O)(=O)c1ccc(S(=O)CC(=O)Oc2ccc(Cl)cc2)c([N+](=O)[O-])c1 (centres undefined) | inactive | – |
| COC(=O)c1ccccc1NC(=O)c1ccc(COc2cccc3ccccc23)o1 | inconclusive [activator, full curve, poor fit] | – |
| CC1CCN(S(=O)(=O)c2ccc(NC(=O)c3cccs3)cc2)CC1 | inactive | – |
| Clc1cccc(CSc2ccc(-c3cccnc3)nn2)c1 | inconclusive [activator, partial curve] | – |
| COc1ccccc1Nc1nc(N)nc(CN2CCC(Cc3ccccc3)CC2)n1 | inconclusive [activator, partial curve] | – |
| C[C@@H]1CN([C@H](C)CO)C(=O)CCCn2cc(nn2)CO[C@H]1CN(C)C(=O)C1CCCCC1 | inconclusive [activator, partial curve] | – |
| COc1ccc(-c2nc3ccccc3n3c(-c4cccc(C)c4)c4c(=O)n(C)c(=O)n(C)c4c23)cc1OC | – | inconclusive: -42% [activator] |
| Cc1ccc2c(c1)N(CC(=O)NCCc1ccccc1)C(=O)CO2 | inconclusive [activator, partial curve] | – |
| CN(c1ccccc1)S(=O)(=O)c1cc(C(=O)NCc2ccco2)ccc1Cl | inconclusive [activator, partial curve] | – |
| COc1cccc(/C(=N/O)C2CC2c2ccc(Cl)cc2)c1 (centres undefined) | active: 15.8 µM | – |
| CCN1C(=O)N[C@@H](CCc2ccccc2)C(C(C)=O)=C1C | inconclusive [activator, partial curve] | – |
| CCc1ccccc1NS(=O)(=O)c1ccc2nc(-c3ccccc3)[nH]c2c1 | inactive | – |
